Laboratory results taken from PMC4336329 (PLoS ONE, 2015).
Among all 310,000 compounds or so, about 2,200 (0.71%) showed an effect of 50% or more. The effect is printed as a negative number. The list shows a part of the results.

Target: human ether-à-go-go-related gene (hERG) potassium channel (human, UniProt Q12809)
Assay: primary screen, population patch clamp on CHO cells stably expressing hERG

human ether-à-go-go-related gene (hERG) potassium channel, sequence (Q12809 whole entry, looked up): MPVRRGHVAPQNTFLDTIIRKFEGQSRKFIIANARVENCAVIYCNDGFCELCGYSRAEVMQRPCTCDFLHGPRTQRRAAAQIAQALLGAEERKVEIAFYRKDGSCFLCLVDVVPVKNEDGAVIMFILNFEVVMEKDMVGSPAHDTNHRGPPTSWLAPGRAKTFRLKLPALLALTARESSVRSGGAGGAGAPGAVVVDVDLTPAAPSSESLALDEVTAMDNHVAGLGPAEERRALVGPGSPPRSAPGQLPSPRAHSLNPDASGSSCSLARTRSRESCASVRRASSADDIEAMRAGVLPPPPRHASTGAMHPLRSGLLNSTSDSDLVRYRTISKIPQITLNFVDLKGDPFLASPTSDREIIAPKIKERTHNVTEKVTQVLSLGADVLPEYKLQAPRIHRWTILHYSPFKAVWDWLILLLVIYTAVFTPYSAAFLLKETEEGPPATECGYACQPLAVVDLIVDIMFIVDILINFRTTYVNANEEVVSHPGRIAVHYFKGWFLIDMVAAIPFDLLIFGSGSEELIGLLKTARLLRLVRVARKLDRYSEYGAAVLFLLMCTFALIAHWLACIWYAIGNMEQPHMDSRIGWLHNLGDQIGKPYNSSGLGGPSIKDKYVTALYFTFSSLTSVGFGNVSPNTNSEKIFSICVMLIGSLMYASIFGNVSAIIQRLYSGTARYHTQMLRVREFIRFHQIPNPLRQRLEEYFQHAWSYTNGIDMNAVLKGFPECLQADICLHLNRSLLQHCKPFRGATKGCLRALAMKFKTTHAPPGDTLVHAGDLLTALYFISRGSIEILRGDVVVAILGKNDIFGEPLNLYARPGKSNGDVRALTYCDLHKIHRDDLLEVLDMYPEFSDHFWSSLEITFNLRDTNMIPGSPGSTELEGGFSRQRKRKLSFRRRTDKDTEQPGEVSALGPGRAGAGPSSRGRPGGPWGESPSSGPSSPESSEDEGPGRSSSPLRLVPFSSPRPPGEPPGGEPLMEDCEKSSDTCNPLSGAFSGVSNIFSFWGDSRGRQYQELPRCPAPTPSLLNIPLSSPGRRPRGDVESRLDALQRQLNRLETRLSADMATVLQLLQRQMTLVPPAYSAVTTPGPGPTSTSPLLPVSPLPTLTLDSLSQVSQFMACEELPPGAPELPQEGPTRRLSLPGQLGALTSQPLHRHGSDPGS

Structure (SMILES) | hERG current change (%, negative = inhibition) at 1uM [%]
CC(=O)Nc1ccc(N2CCOCC2)c(Cl)c1 | 5.27
CN(c1ccccc1)S(=O)(=O)c1cccc(NS(=O)(=O)c2cccc(C(=O)O)c2)c1 | 7.26
COc1cccc(/C=N/Nc2snc(SC)c2C#N)c1O | 9.3
COc1cc(OC)cc(C(=O)N[C@H](C(=O)OCC(=O)Nc2ccc(C(C)C)cc2)C(C)C)c1 | 9.37
CN(C)CCCn1c(N)c(S(=O)(=O)c2ccccc2)c2nc3ccccc3nc21 | -12.3
Cc1cc(NC(=O)CS(=O)(=O)c2cn(Cc3ccccc3Cl)c3ccccc23)no1 | 2.27
CC(=O)c1cc2c(cc1NC(=O)CN1Cc3ccccc3C1=O)OCO2 | 4.59
CSCCC(NC(=O)c1ccco1)C(=O)OCc1cc([N+](=O)[O-])cc2c1OCOC2 (centres unmarked) | 6.95
CC1CCCN(S(=O)(=O)Cc2ccc(Cl)cc2)C1 (centres unmarked) | 6.3
O=C(NCc1n[nH]c(=S)n1-c1ccc(Cl)c(Cl)c1)c1ccc(S(=O)(=O)N2CCCCC2)cc1 | 12.9
COc1cccc(CN2CCNC(=O)C2CC(=O)N(C)Cc2cnccn2)c1OC (centres unmarked) | 17.7
O=C(COc1ccc(Cl)cc1)NCCNC(=O)c1cnccn1 | 7.73
COC(=O)c1ccc(NC(=O)CN(c2ccc3c(c2)OCO3)S(C)(=O)=O)cc1 | 12.5
Cc1ccc(-c2ccc(NC(=O)C3C4C=CC(C4)C3C(=O)O)cc2)o1 (centres unmarked) | 14.5
CC(C)n1nc(Cc2cccc3ccccc23)c(C#N)c1N | -0.0121
O=C1CCCN2N=C(SCC(=O)Nc3cccc(F)c3)SC2=N1 | -1.24
COc1ccc(NC(=O)c2ccc(NC(=O)C3CC3)cc2)cc1 | -0.0678
CC(=O)Nc1ccc(SCC(=O)Nc2cc(C)on2)cc1 | -8.3
Cc1c(C(=O)N2CCCC2)c(S(=O)(=O)Nc2ccccc2)c(C)n1C | 17
O=C(NCC1CCCCC1)c1cccnc1 | 16.5
COc1ccc(C2=CC(=O)C[C@H](c3ccc(OC)cc3)C2)cc1 | 0.975
CCC(C)N(C(=O)CCC(=O)Nc1cc(C)on1)C(C(=O)NC(C)(C)C)c1ccccc1Cl (centres unmarked) | 10.5

Structure (SMILES) | hERG current change (%, negative = inhibition) at 1uM [%]
CCOC(=O)CN(C)C(=O)CCc1nnc(-c2ccsc2)o1 | 11.1
COc1ccc(CN(CC(=O)NC2CCCCC2)C(=O)CCCC(=O)Nc2ccccn2)cc1 | 9.4
COc1ccc2oc(C(=O)OCC(=O)N3CCCC3=O)c(C)c2c1 | 16.1
NC(=O)c1ccccc1N=Cc1ccc2ccccc2c1 | 14.2
CCOC(=O)c1c(NC(=O)CCC(=O)NCc2ccco2)sc2c1CCCC2 | 13
O=S(=O)(c1cc(Cl)ccc1Br)N1CCCCC1 | -2.73
Cc1c(C)c2ccc(OC(C)C(=O)N3C[C@H]4C[C@@H](C3)c3cccc(=O)n3C4)c(C)c2oc1=O (some centres unmarked) | 20.9
COC(=O)C1=C(N)OC2=C(C(=O)CC(C)(C)C2)C1c1ccccc1OCC#N (centres unmarked) | 10.6
Cc1ccc(S(=O)(=O)N2CCC(C(=O)NNC(=O)c3ccncc3)CC2)cc1 | 12
CCCNC(=O)COc1nc2ccccc2nc1N1CCOCC1 | 9.19
O=C(Nc1ccccc1Oc1cccnc1)C1CCCN(Cc2cccc(Cl)c2)C1 (centres unmarked) | 6.89
COC(=O)[C@@]1(Cc2ccc(OC)cc2)[C@H]2c3cc(C(=O)N4CCCC4)n(CCO)c3C[C@H]2CN1C(=O)c1ccccc1 | -0.587
CC(C(=O)NCc1ccccc1)N(Cc1ccccc1Cl)C(=O)c1snc(C(N)=O)c1N (centres unmarked) | 14.8
C/C(O)=C(/C=NCC(=O)O)C(=O)Nc1nccs1 | 2.61
O=C(CN1CCN(Cc2ccccc2Cl)CC1)N/N=C/C=C/c1ccccc1[N+](=O)[O-] | -14.7
Cc1nn2c(N3CCCC3)cc(C(C)C)nc2c1-c1ccccc1 | 2.7
COC(=O)c1ccccc1SC1CC(=O)N(c2cccc(C)c2)C1=O (centres unmarked) | 18.2
COc1ccc(S(=O)(=O)Nc2ccc3c(c2)CCC3)cc1 | 16.2
C[C@@H](C(=O)Nc1ccc2ccccc2c1)[C@H]1C[C@]1(C)[C@H](NC(=O)OCc1ccccc1)c1ccccc1 | 12.6
CC1(C)CC(=O)C=C(NCCN2CCN(C(=S)Nc3ccccc3)CC2)C1 | 7.14
CCOc1cc(NC(=S)NCC(C)C)c(OCC)cc1NC(=O)c1cccs1 | 8.32
Cc1ccc(NS(=O)(=O)c2c(C)[nH]c(=O)[nH]c2=O)c(Br)c1 | 13.7

Structure (SMILES) | hERG current change (%, negative = inhibition) at 1uM [%]
Cc1ccc(C(=O)NCC(=O)OCc2nnc(-c3ccccc3)o2)cc1 | 2.34
C=CCNC(=O)c1c(CSc2ccc(F)cc2)noc1C(=O)NCCC | 11.8
Cc1c(CCC(=O)N[C@@H](C)C(=O)O)c(=O)oc2c(C)c3oc4c(c3cc12)CCCC4 | 2.95
Cc1cnc(NC(=O)C2CC=CCC2)s1 (centres unmarked) | 20.5
CCOC(=O)/C(C(C)=O)=C1/OC(=O)c2ccccc21 | 9.8
O=C(NCc1ccccc1)C1=C[C@H](c2coc3ccccc3c2=O)C[C@H](OCc2ccc(CO)cc2)O1 | -1.9
COc1ccc(S(=O)(=O)/N=C2/C=CC(=O)C(C)=C2C)cc1 | -7.77
COCCNC(=O)C(OC(=O)c1cccs1)c1ccc(F)cc1 (centres unmarked) | -21.4
Cc1cc(C(=O)Nc2ccc([N+](=O)[O-])cn2)cs1 | 16.4
O=C(/C=C/c1cccs1)N1CCC2(CC1)Oc1ccc(F)cc1C(=O)C21CC(c2ccccc2)=NO1 (centres unmarked) | 3.49
CN(C(=O)c1nn(C)c2c1CS(=O)(=O)c1ccccc1-2)c1cccc(Cl)c1 | 3.91
Cc1ccc(NC(=S)N/C(=N/S(=O)(=O)c2ccccc2)c2ccccc2)cc1 | 8.9
Cc1cc(=O)[nH]c(SCC(=O)Nc2ccc3c(c2)CCC3)c1C#N | 8.12
Cc1noc(C)c1S(=O)(=O)N1CCC(C(=O)Nc2ccccn2)CC1 | -5.02
CC(C)(C)c1ccc(O)c(N)c1 | 9.43
CCCOc1ccc(C(CC(=O)O)NC(=O)C(c2ccccc2)c2ccccc2)cc1 (centres unmarked) | 11.6
CC(C(=O)c1c[nH]c(C(=O)N=CN(C)C)c1)c1ncc(C(F)(F)F)cc1Cl (centres unmarked) | 7.65
O=C(/C=C\Nc1cccc(F)c1)c1cccs1 | 16.1
CCCc1nc2c(=O)[nH]c3ccccc3c2o1 | 5.98
COc1cc(C(=O)NC2(C(F)(F)F)NC(=O)N(CCCc3ccccc3)C2=O)cc(OC)c1OC (centres unmarked) | -0.405
O=P(C(=Nc1ccc(Cl)cc1)N1CCOCC1)(N1CCOCC1)N1CCOCC1 | 1.44
O=Cc1cn[nH]c1-c1cccc([N+](=O)[O-])c1 | 3.95

Structure (SMILES) | hERG current change (%, negative = inhibition) at 1uM [%]
O=C(Cc1cccs1)N1CCN=C1SCc1cccc(F)c1 | 11.1
CC(=O)Nc1ccc(NC(=O)CSCc2ccccc2Cl)cc1 | 11.1
CC(C)N1CCN(c2ccncc2S(=O)(=O)N2CCOCC2)CC1 | 16.8
CC(C)CC(NS(=O)(=O)c1ccc2c(c1)oc(=O)n2C)C(=O)NC1CCCc2ccccc21 (centres unmarked) | 13.9
OCCN(Cc1ccccc1)Cc1ccccc1F | -7.32
CCOc1cc(/C=C2\SC(=S)N(NC(=O)c3cccnc3)C2=O)ccc1O | 19.6
CCc1ccc(OCc2ccc(C(=O)NCc3ccccn3)o2)cc1 | -11.2
CCC1SC2=NC(C)=C(C(=O)OC)C(c3cccs3)N2C1=O (centres unmarked) | 7.32
NS(=O)(=O)c1ccc(NC(=O)COC(=O)c2cc([N+](=O)[O-])ccc2Cl)cc1 | 9.69
COCCNC(=O)/C(C#N)=C/c1c(N2CC(C)OC(C)C2)nc2ccccn2c1=O (centres unmarked) | 8.79
CCOc1ccccc1-n1c(SCC(=O)NC)nnc1-c1ccco1 | 5.55
CN(c1ccc(F)cc1)S(=O)(=O)c1ccc(Cl)c(C(=O)OCC(=O)NCc2ccco2)c1 | 13.6
O=C(Nc1nc(-c2ccc3ccccc3c2)cs1)C1CCN(S(=O)(=O)c2cccs2)CC1 | 9.97
CCOC(=O)c1sc(=S)n(-c2ccc(Cl)cc2)c1SC | -7.5
CCOc1ccc(OCC)c(NC(=O)CSc2nnc(Cn3cnc4ccccc43)n2C)c1 | -6.7
CNC(=O)c1cc2ccc(OC)cc2oc1=O | 3.22
Cc1cccc(C)c1NC(=S)N/N=C/c1c(Cl)cccc1Cl | 9.01
O=C(O)/C=C\C(=O)Nc1cccc(C(=O)Nc2cccc(O)c2)c1 | 8.09
O=C(Oc1cccc(/C=N/Nc2nc(N3CCOCC3)nc(N3CCOCC3)n2)c1)c1ccco1 | 2.17
Cc1ccc(CN2C(=O)CCC2C(=O)NCc2ccc(F)cc2)cc1 (centres unmarked) | 2.33
